Measurements: PubChem BioAssay AID1745853 (National Center for Advancing Translational Sciences (NCATS), 2022)
The other results are listed elsewhere or left out. Further columns of the screen follow, without active or inactive calls.

Legend:
Assay in all cases: Primary Screen for Target Class Profiling of Small Molecule Inhibitors of Methyltransferases
[1] = molecular target: Glycine N-methyltransferase (Homo sapiens) (UniProt Q14749); settings: purified enzyme, MTase-Glo SAH luminescence; measured here: GNMT inhibition; at 40 µM; stronger effect = lower value
Procedure, shortened: (§1)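 Each enzyme was assayed with SAM and its substrate. SAH formation detected by MTase-Glo luminescence; single-point 40 uM screen[…].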

[2] = molecular target: Guanidinoacetate N-methyltransferase (Homo sapiens) (UniProt Q14353); settings: purified enzyme, MTase-Glo SAH luminescence; measured here: GAMT inhibition; at 40 µM; stronger effect = lower value
Procedure, shortened: as §1

[3] = molecular target: Histamine N-methyltransferase (Homo sapiens) (UniProt P50135); settings: purified enzyme, MTase-Glo SAH luminescence; measured here: HNMT inhibition; at 40 µM; stronger effect = lower value
Procedure, shortened: as §1

[4] = molecular target: Nicotinamide N-methyltransferase (Homo sapiens) (UniProt P40261); settings: purified enzyme, MTase-Glo SAH luminescence; measured here: NNMT inhibition; at 40 µM; stronger effect = lower value
Procedure, shortened: as §1

[5] = molecular target: Phenylethanolamine N-methyltransferase (Homo sapiens) (UniProt P11086); settings: purified enzyme, MTase-Glo SAH luminescence; measured here: PNMT inhibition; at 40 µM; stronger effect = lower value
Procedure, shortened: as §1
% is scaled to controls: 0 for no effect and ±100 for the full control effect.

How did the activity change, negative = inhibition [1] turn out when `CCCN1C(=O)c2c(C(=O)NCCN3CCOCC3)ncn2CC1(C)C(=O)NCc1ccc(C)cc1` (stereo not given) was run?
Its activity change, negative = inhibition is 3.67%.

What about the activity change, negative = inhibition [2] of the same compound?
The activity change, negative = inhibition was 0%.

What about the activity change, negative = inhibition [3] of the same compound?
Its activity change, negative = inhibition is 5.33%.

And the activity change, negative = inhibition [4]?
Its activity change, negative = inhibition is 4.79%.

And the activity change, negative = inhibition [5]?
Its activity change, negative = inhibition is 6.26%.

Which results are given for `CNC(=O)[C@@H](CC(C)C)N1CCC[C@H]1C(=O)N1CCN(C)CC1`?
activity change, negative = inhibition [1]: 7.78%; activity change, negative = inhibition [2]: -7.79%; activity change, negative = inhibition [3]: -2.41%; activity change, negative = inhibition [4]: -9.03%; activity change, negative = inhibition [5]: -6.46%

With `CN(C1CCc2nn(CC3CC3)c(=O)n2CC1)S(=O)(=O)c1cccnc1` (stereo not given) as the compound, how does the activity change, negative = inhibition [1] read?
The activity change, negative = inhibition was 1.45%.

And the activity change, negative = inhibition [2]?
Its activity change, negative = inhibition is 2.94%.

What about the activity change, negative = inhibition [3] of the same compound?
The activity change, negative = inhibition was 3.01%.

And the activity change, negative = inhibition [4]?
The activity change, negative = inhibition was -0.457%.

What about the activity change, negative = inhibition [5] of the same compound?
The activity change, negative = inhibition was 18.4%.

What does the source list for `CC1CCC(NC(=O)C2(c3ccccc3)Cn3c(cc4sccc43)C(=O)N2Cc2ccc(F)cc2)CC1` (stereo not given)?
activity change, negative = inhibition [1]: 7.21%; activity change, negative = inhibition [2]: 3.38%; activity change, negative = inhibition [3]: 6.98%; activity change, negative = inhibition [4]: 4.05%; activity change, negative = inhibition [5]: -2.4%

`O=C(O)Cc1c(-c2ccccc2)c2cc(Br)ccc2[nH]c1=O` was tested. Which activity change, negative = inhibition [1] did it give?
The activity change, negative = inhibition was -13.3%.

What about the activity change, negative = inhibition [2] of the same compound?
The activity change, negative = inhibition was 3.32%.

What about the activity change, negative = inhibition [3] of the same compound?
Its activity change, negative = inhibition is 2.07%.

What about the activity change, negative = inhibition [4] of the same compound?
Its activity change, negative = inhibition is -2.36%.

What about the activity change, negative = inhibition [5] of the same compound?
The activity change, negative = inhibition was -0.816%.

`COc1ccc(CN2C(=O)c3c(-n4cccc4)c4cc(F)ccc4n3CC2(C)C(=O)NC2CCCCCC2)cc1` (stereo not given) was tested. Which activity change, negative = inhibition [1] did it give?
Its activity change, negative = inhibition is -17.4%.

What about the activity change, negative = inhibition [2] of the same compound?
The activity change, negative = inhibition was 3.68%.

What about the activity change, negative = inhibition [3] of the same compound?
The activity change, negative = inhibition was -5.76%.

What about the activity change, negative = inhibition [4] of the same compound?
The activity change, negative = inhibition was -24.7%.

What about the activity change, negative = inhibition [5] of the same compound?
The activity change, negative = inhibition was -4.12%.

For `CCOC(=O)c1cc2n(n1)CC(C)(C(=O)NC1CCCCCC1)N(c1cccc(Cl)c1C)C2=O` (stereo not given), which activity change, negative = inhibition [1] is on record?
Its activity change, negative = inhibition is -0.261%.

And the activity change, negative = inhibition [2]?
The activity change, negative = inhibition was 3.41%.

What about the activity change, negative = inhibition [3] of the same compound?
Its activity change, negative = inhibition is -4.93%.

And the activity change, negative = inhibition [4]?
The activity change, negative = inhibition was 1.31%.

And the activity change, negative = inhibition [5]?
Its activity change, negative = inhibition is -0.267%.

Which results are given for `Cc1cccc(N2CCN(S(=O)(=O)c3ccc4c(c3)n(C)c(=O)n4C)CC2C)c1` (stereo not given)?
activity change, negative = inhibition [1]: -0.342%; activity change, negative = inhibition [2]: 2.71%; activity change, negative = inhibition [3]: 3.17%; activity change, negative = inhibition [4]: 4.79%; activity change, negative = inhibition [5]: -0.909%

Which activity change, negative = inhibition [1] does the source give for `CN(C)c1ccc(Nc2nc(N)n(C(=O)c3c(F)cccc3F)n2)cc1` here?
The activity change, negative = inhibition was -21.6%.

And the activity change, negative = inhibition [2]?
The activity change, negative = inhibition was -8.4%.

What about the activity change, negative = inhibition [3] of the same compound?
The activity change, negative = inhibition was 1.72%.

And the activity change, negative = inhibition [4]?
The activity change, negative = inhibition was -24.3%.

What about the activity change, negative = inhibition [5] of the same compound?
Its activity change, negative = inhibition is -32%.

Which activity change, negative = inhibition [1] does the source give for `O=C(NCc1ccc(F)cc1)C1=NOC2CN(C(=O)Nc3cccnc3)CC12` (stereo not given) here?
Its activity change, negative = inhibition is -4.11%.

And the activity change, negative = inhibition [2]?
The activity change, negative = inhibition was -2.1%.

And the activity change, negative = inhibition [3]?
The activity change, negative = inhibition was -3.26%.

And the activity change, negative = inhibition [4]?
Its activity change, negative = inhibition is -7.82%.

What about the activity change, negative = inhibition [5] of the same compound?
The activity change, negative = inhibition was -5.91%.

`CCc1ccc(S(=O)(=O)N2c3ccccc3CC2c2nnc(C3CCOCC3)o2)cc1` (stereo not given) was tested. Which activity change, negative = inhibition [1] did it give?
Its activity change, negative = inhibition is -1.77%.

And the activity change, negative = inhibition [2]?
The activity change, negative = inhibition was -2.11%.

And the activity change, negative = inhibition [3]?
The activity change, negative = inhibition was 0.772%.

And the activity change, negative = inhibition [4]?
Its activity change, negative = inhibition is -17.4%.

What about the activity change, negative = inhibition [5] of the same compound?
The activity change, negative = inhibition was 11.1%.

For `CC(C)Oc1ccc(CN2C(=O)c3cc(-c4ccccc4)nn3CC2(C)C(=O)NCc2ccccc2)cc1` (stereo not given), which activity change, negative = inhibition [1] is on record?
The activity change, negative = inhibition was 0.61%.

What about the activity change, negative = inhibition [2] of the same compound?
Its activity change, negative = inhibition is 3.4%.

And the activity change, negative = inhibition [3]?
Its activity change, negative = inhibition is -0.589%.

What about the activity change, negative = inhibition [4] of the same compound?
The activity change, negative = inhibition was -4.33%.

And the activity change, negative = inhibition [5]?
The activity change, negative = inhibition was -6.92%.

Which activity change, negative = inhibition [1] does the source give for `COc1ccc(OC)c(N2C(=O)c3cc4occc4n3CC2(C)C(=O)NC2CCCCCC2)c1` (stereo not given) here?
The activity change, negative = inhibition was -13.2%.

And the activity change, negative = inhibition [2]?
The activity change, negative = inhibition was 0%.

And the activity change, negative = inhibition [3]?
The activity change, negative = inhibition was 4.29%.

What about the activity change, negative = inhibition [4] of the same compound?
Its activity change, negative = inhibition is -5.11%.

What about the activity change, negative = inhibition [5] of the same compound?
The activity change, negative = inhibition was 0.207%.

How did the activity change, negative = inhibition [1] turn out when `OC[C@H]1O[C@@H](OCCc2ccccc2)[C@H](O)[C@@H](O)[C@@H]1O` was run?
Its activity change, negative = inhibition is 4.63%.

And the activity change, negative = inhibition [2]?
Its activity change, negative = inhibition is 4.4%.

And the activity change, negative = inhibition [3]?
Its activity change, negative = inhibition is 8.49%.

What about the activity change, negative = inhibition [4] of the same compound?
The activity change, negative = inhibition was -8.42%.

What about the activity change, negative = inhibition [5] of the same compound?
Its activity change, negative = inhibition is 0.74%.

Which results are given for `O=C(COc1cc(O)c2c(=O)cc(-c3ccccc3)oc2c1)c1ccc(F)cc1`?
activity change, negative = inhibition [1]: -7.25%; activity change, negative = inhibition [2]: 4.87%; activity change, negative = inhibition [3]: -0.29%; activity change, negative = inhibition [4]: -0.564%; activity change, negative = inhibition [5]: -3.22%

How did the activity change, negative = inhibition [1] turn out when `Cc1ccc(C#N)c(NCc2cccnc2Oc2cccc(C(F)(F)F)c2)n1` was run?
Its activity change, negative = inhibition is -2.94%.

And the activity change, negative = inhibition [2]?
The activity change, negative = inhibition was -8.3%.

What about the activity change, negative = inhibition [3] of the same compound?
The activity change, negative = inhibition was -2.34%.

And the activity change, negative = inhibition [4]?
The activity change, negative = inhibition was -12.6%.

What about the activity change, negative = inhibition [5] of the same compound?
The activity change, negative = inhibition was -3.63%.

Which activity change, negative = inhibition [1] does the source give for `O=C1CC2(CCN(Cc3ccc(C(F)(F)F)cc3)CC2)Oc2ccccc21` here?
The activity change, negative = inhibition was -8.69%.

And the activity change, negative = inhibition [2]?
Its activity change, negative = inhibition is -3.13%.

And the activity change, negative = inhibition [3]?
Its activity change, negative = inhibition is -2.77%.

What about the activity change, negative = inhibition [4] of the same compound?
The activity change, negative = inhibition was -11.6%.

What about the activity change, negative = inhibition [5] of the same compound?
The activity change, negative = inhibition was -29.2%.
